The results in this text go back to a collection of fitness landscapes (doi:10.1016/j.celrep.2020.107928).

The chains are these.
B1: Caulobacter ParB omega fusion; a variant is named by its letters at X, in order, B8GW30 (parent)
chain: MESVVVGEPGMSEGRRGLGRGLSALLGEVDAAPAQAPGEQLGGSREAPIEILQRNPDQPRRTFREEDLEDLSNSIREKGVLQPILVRPSPDTAGEYQIVAGERAWRAAQRAGLKTVPIMVRELDDLAVLEIGIIENVQRADLNVLEEALSYKVLMEKFERTQENIAQTIGKSXSHVANXMRLLXLPDEVQSYLVSGELTAXHARAIAAAADPVALAKQIIEGGLSVRETEALARKAPNLSAGKSKGGRPPRVKDTDTQALESDLSSVLGLDVSIDHRGSTGTLTITYATLEQLDDLCNRLTRGI

Over roughly 81,000 sequences, “one-hybrid fitness for binding NBS DNA” has its median near -0.1; the highest 2% begin near 0.36. The list shows a part of the results. A value given as a limit tells only on which side of the number the result lay.

The variants in the test derive from B1. Nature of the test: one-hybrid fitness for binding NBS DNA (the Noc-binding site; scaled: cognate 1, non-cognate 0); higher = stronger binding. To be noted: with NBS DNA site. Summed up: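 Pre- and post-selection plasmids were Illumina-sequenced, three replicate libraries were pooled, and any variant with under 10 reads was removed. The libraries were Caulobacter ParB with four specificity codons randomised, selected in E. coli USO through a HIS3 reporter whose site is 19 bp from the promoter. Cells grew 48 hours at 37°C on M9 without histidine, with 0.1 mM IPTG and 5 mM 3-AT. Fitness is the log change in variant-to-wild-type read ratio, rescaled against cognate and non-cognate.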
With CFRS, the “one-hybrid fitness for binding NBS DNA” value is not above 0.2.

In the case of HYQN, the “one-hybrid fitness for binding NBS DNA” value was not above 0.2.

For RTWY, the “one-hybrid fitness for binding NBS DNA” value was not above 0.2.

In the case of MIVG, the “one-hybrid fitness for binding NBS DNA” value is not above 0.2.

Consider HCYT, for which the “one-hybrid fitness for binding NBS DNA” value is not above 0.2.

In the case of PDGS, the “one-hybrid fitness for binding NBS DNA” value was not above 0.2.

Consider RTWA, for which the “one-hybrid fitness for binding NBS DNA” value was not above 0.2.

With IEKR, the “one-hybrid fitness for binding NBS DNA” value was not above 0.2.

As to PNDK, the “one-hybrid fitness for binding NBS DNA” value was not above 0.2.

QTKS: the “one-hybrid fitness for binding NBS DNA” value is 0.783.

Regarding PAQA, the “one-hybrid fitness for binding NBS DNA” value was not above 0.2.

MRKS: the “one-hybrid fitness for binding NBS DNA” value is not above 0.2.

Consider LYEV, for which the “one-hybrid fitness for binding NBS DNA” value is not above 0.2.

In the case of MSHR, the “one-hybrid fitness for binding NBS DNA” value is not above 0.2.

In the case of NTME, the “one-hybrid fitness for binding NBS DNA” value was not above 0.2.

Turning to AGDG, the “one-hybrid fitness for binding NBS DNA” value is not above 0.2.

As for LLPC, the “one-hybrid fitness for binding NBS DNA” value is not above 0.2.

Consider NRAR, for which the “one-hybrid fitness for binding NBS DNA” value is not above 0.2.

Turning to WRDS, the “one-hybrid fitness for binding NBS DNA” value was not above 0.2.

With HDPG, the “one-hybrid fitness for binding NBS DNA” value is not above 0.2.

As for TLLG, the “one-hybrid fitness for binding NBS DNA” value is not above 0.2.

In the case of VTDS, the “one-hybrid fitness for binding NBS DNA” value was not above 0.2.

On to EIPR, for which the “one-hybrid fitness for binding NBS DNA” value was not above 0.2.

Regarding WMFG, the “one-hybrid fitness for binding NBS DNA” value was not above 0.2.

With GMIV, the “one-hybrid fitness for binding NBS DNA” value is not above 0.2.

As for MTDR, the “one-hybrid fitness for binding NBS DNA” value was not above 0.2.

For NVYA, the “one-hybrid fitness for binding NBS DNA” value was not above 0.2.

Take PDEA: the “one-hybrid fitness for binding NBS DNA” value was not above 0.2.

For VDGS, the “one-hybrid fitness for binding NBS DNA” value was not above 0.2.

On to DRKA, for which the “one-hybrid fitness for binding NBS DNA” value was not above 0.2.

Take TMHA: the “one-hybrid fitness for binding NBS DNA” value was not above 0.2.

HGHG: the “one-hybrid fitness for binding NBS DNA” value was not above 0.2.

Regarding RITR, the “one-hybrid fitness for binding NBS DNA” value worked out at 0.437.

As for SRNY, the “one-hybrid fitness for binding NBS DNA” value was not above 0.2.

Take CPKI: the “one-hybrid fitness for binding NBS DNA” value is not above 0.2.

Turning to PLHL, the “one-hybrid fitness for binding NBS DNA” value is not above 0.2.

With DRFT, the “one-hybrid fitness for binding NBS DNA” value is not above 0.2.

As to GAMT, the “one-hybrid fitness for binding NBS DNA” value is not above 0.2.

For the variant QVCR, the “one-hybrid fitness for binding NBS DNA” value is 0.361.

Take RVQL: the “one-hybrid fitness for binding NBS DNA” value is not above 0.2.

Take ETNV: the “one-hybrid fitness for binding NBS DNA” value was not above 0.2.

Turning to TQDM, the “one-hybrid fitness for binding NBS DNA” value was not above 0.2.

With GASN, the “one-hybrid fitness for binding NBS DNA” value was not above 0.2.

As to NLLN, the “one-hybrid fitness for binding NBS DNA” value was not above 0.2.

Take QCSA: the “one-hybrid fitness for binding NBS DNA” value stood at 0.302.

With QMNP, the “one-hybrid fitness for binding NBS DNA” value was not above 0.2.

Turning to NNVM, the “one-hybrid fitness for binding NBS DNA” value is not above 0.2.

In the case of SQTT, the “one-hybrid fitness for binding NBS DNA” value is not above 0.2.

As for ANPK, the “one-hybrid fitness for binding NBS DNA” value was not above 0.2.

Turning to QCNK, the “one-hybrid fitness for binding NBS DNA” value is not above 0.2.

Turning to RPMM, the “one-hybrid fitness for binding NBS DNA” value is not above 0.2.

As to QIYY, the “one-hybrid fitness for binding NBS DNA” value was not above 0.2.

On to PDHS, for which the “one-hybrid fitness for binding NBS DNA” value was not above 0.2.

On to WLFE, for which the “one-hybrid fitness for binding NBS DNA” value was not above 0.2.

As for VLKE, the “one-hybrid fitness for binding NBS DNA” value was not above 0.2.

Consider QFGT, for which the “one-hybrid fitness for binding NBS DNA” value is not above 0.2.

As for DFMV, the “one-hybrid fitness for binding NBS DNA” value is not above 0.2.

Take NARS: the “one-hybrid fitness for binding NBS DNA” value was not above 0.2.

Turning to QIFC, the “one-hybrid fitness for binding NBS DNA” value was not above 0.2.

On to QLCH, for which the “one-hybrid fitness for binding NBS DNA” value was not above 0.2.

Turning to IVKG, the “one-hybrid fitness for binding NBS DNA” value is not above 0.2.

DEAR: the “one-hybrid fitness for binding NBS DNA” value is not above 0.2.

FKLC: the “one-hybrid fitness for binding NBS DNA” value was not above 0.2.

In the case of RCDL, the “one-hybrid fitness for binding NBS DNA” value is not above 0.2.

In the case of CTNL, the “one-hybrid fitness for binding NBS DNA” value was not above 0.2.

With LRGV, the “one-hybrid fitness for binding NBS DNA” value was not above 0.2.

Turning to HCVT, the “one-hybrid fitness for binding NBS DNA” value is not above 0.2.

Turning to DSIR, the “one-hybrid fitness for binding NBS DNA” value is not above 0.2.

VIQL: the “one-hybrid fitness for binding NBS DNA” value was not above 0.2.

For the variant QNMT, the “one-hybrid fitness for binding NBS DNA” value was not above 0.2.

With CCDT, the “one-hybrid fitness for binding NBS DNA” value is not above 0.2.

Regarding RDYM, the “one-hybrid fitness for binding NBS DNA” value is not above 0.2.

On to ETDC, for which the “one-hybrid fitness for binding NBS DNA” value was not above 0.2.

Take EIAQ: the “one-hybrid fitness for binding NBS DNA” value was not above 0.2.

For LDHD, the “one-hybrid fitness for binding NBS DNA” value was not above 0.2.

Consider QVAM, for which the “one-hybrid fitness for binding NBS DNA” value was not above 0.2.

Regarding DVWC, the “one-hybrid fitness for binding NBS DNA” value was not above 0.2.

In the case of QYRD, the “one-hybrid fitness for binding NBS DNA” value was not above 0.2.

LVLA: the “one-hybrid fitness for binding NBS DNA” value is not above 0.2.

In the case of RELG, the “one-hybrid fitness for binding NBS DNA” value was not above 0.2.

Regarding LTVH, the “one-hybrid fitness for binding NBS DNA” value is not above 0.2.

For the variant DCKG, the “one-hybrid fitness for binding NBS DNA” value was not above 0.2.

In the case of QFVD, the “one-hybrid fitness for binding NBS DNA” value is not above 0.2.

Consider LEPA, for which the “one-hybrid fitness for binding NBS DNA” value is not above 0.2.

Take AHDE: the “one-hybrid fitness for binding NBS DNA” value was not above 0.2.

As for QFAH, the “one-hybrid fitness for binding NBS DNA” value is not above 0.2.

Take ITLS: the “one-hybrid fitness for binding NBS DNA” value is not above 0.2.

As for YCIT, the “one-hybrid fitness for binding NBS DNA” value is not above 0.2.

RKAY: the “one-hybrid fitness for binding NBS DNA” value stood at 0.221.

TDEQ: the “one-hybrid fitness for binding NBS DNA” value was not above 0.2.

Regarding KQRA, the “one-hybrid fitness for binding NBS DNA” value was not above 0.2.

As to QDPA, the “one-hybrid fitness for binding NBS DNA” value was not above 0.2.

For VVKS, the “one-hybrid fitness for binding NBS DNA” value is not above 0.2.

On to QCEL, for which the “one-hybrid fitness for binding NBS DNA” value was not above 0.2.

On to GTPQ, for which the “one-hybrid fitness for binding NBS DNA” value is not above 0.2.

QHAA: the “one-hybrid fitness for binding NBS DNA” value is not above 0.2.

Consider TTRP, for which the “one-hybrid fitness for binding NBS DNA” value is not above 0.2.
